Reference: PubChem BioAssay AID485364 (National Center for Advancing Translational Sciences (NCATS), 2010)
The campaign covered roughly 360,000 compounds. About 11,000 (3.1%) were called active. Inconclusive means that the source gave no clear call. Such entries were picked first, then a sample of the others. The call rests on the fitted dose curve; in most records, active means well fitted inhibition curve with a large enough effect; inconclusive means small, poorly fitted or top-dose-only effect; inactive means no such curve, though single readings can be large or run the other way. No potency is given beside an inconclusive call; the fits are too rough.

These compounds were tested against Schistosoma mansoni thioredoxin glutathione reductase (TGR) (UniProt Q962Y6) (assay: qHTS Assay for the Inhibitors of Schistosoma Mansoni Peroxiredoxins). Conditions: purified TGR, DTNB reduction, TNB absorbance 405 nm; series mostly up to 114 µM.
Method in brief: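 First, TGR (20 nM dispensed) and NADPH were mixed with compound. Second, a 15 min room-temperature incubation followed. Third, further NADPH and then DTNB were added to start the reaction. Finally, TNB absorbance was monitored kinetically.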
Further: nearly all actives have a fitted effect of over 60% in size.
Potency means the concentration at half of the fitted maximal effect; tags describe the fitted curve by direction and shape.

Structure (SMILES)	Potency
Cc1ccc(S(=O)(=O)Cc2ccc(C(=O)N3CCN(c4ccccn4)CC3)o2)cc1	inconclusive [inhibitor, partial curve]
Cc1ccc(N2CC(O)=C(c3nc4ccccc4c(=O)[nH]3)C2=N)cc1C	inconclusive [inhibitor, partial curve]
O=CN1CCN(C(=O)c2ccc3c(c2)OCO3)CC1	inconclusive [inhibitor, partial curve]
Cc1ccc(CNC(=O)CCc2ccc(S(=O)(=O)NC3CCCCC3)cc2)cc1	inconclusive [inhibitor, partial curve]
O=C(NCCc1ccc(Cl)cc1)c1ccc(CS(=O)(=O)Cc2ccc(Cl)cc2)o1	inactive
Cc1ccc(OCCNC(=O)C2CC(=O)N(Cc3ccccc3)C2)cc1 (centres undefined)	inactive
O=C(N/N=C/c1ccc([N+](=O)[O-])s1)c1ccccc1Br	inconclusive [inhibitor, full curve]
Cc1ccc(SC[C@H](c2ccccc2)N2CCN(CCc3ccccc3)CCC2=O)cc1	inconclusive [inhibitor, partial curve]
O=C(c1cccc(C(F)(F)F)c1)c1c[nH]c(C(=O)NCCCN2CCOCC2)c1	inconclusive [inhibitor, partial curve]
CCn1c(Cc2ccc(OC)cc2)nnc1SCC(=O)Nc1nc2ccccc2s1	inactive
Nc1cc(Cl)c2nonc2c1[N+](=O)[O-]	active: 1.41 µM
CC1=C(C(=O)OCC(C)C)C(c2cccc(F)c2)N2C(=O)C(C)SC2=N1 (centres undefined)	inactive
CCOC(=O)N1CCC(NC(=O)CCc2nc(C3=CCN(C)CC3)no2)CC1	inconclusive [inhibitor, partial curve, poor fit]
COc1ccc(CNC(=O)c2ccc3c(c2)CCN3S(=O)(=O)c2ccccc2)cc1	inactive
CN1CCN(C(=O)C2=C[C@@H](C3CCCCC3)C[C@@H](OCCCCO)O2)CC1	inconclusive [inhibitor, partial curve]
CCCOCc1cc(CN2CCN(c3ccccc3OC)CC2)c(O)c2ncccc12	active: 39.8 µM
CCN(CC)S(=O)(=O)c1ccc(N2CCOCC2)c(NC(=O)CN2C(=O)NC(C)(c3ccccc3)C2=O)c1 (centres undefined)	inconclusive [inhibitor, full curve]
COc1ccc(OC)c(Nc2nc(-c3sc(N)nc3C)cs2)c1	inactive
CC/C=C(\NC(C)=O)c1ccccc1	inconclusive [inhibitor, partial curve]
Nc1nccnc1C(=O)N/N=C/c1ccco1	inconclusive [inhibitor, partial curve]
CN(C(=O)Cn1c(=O)oc2ccccc21)C1CCCCC1	inactive
COc1cccc(NC(=O)Nc2cccs2)c1	inconclusive [inhibitor, partial curve]
O=C(c1csc(Nc2cccc3ccccc23)n1)N1CCCC1	inactive
O=C(NC(Cc1ccccc1)c1ccc2c(c1)OCCCO2)c1ccccc1 (centres undefined)	inactive
O=C(O)CC1C(=O)NCCN1Cc1ccc(F)c(F)c1 (centres undefined)	inconclusive [inhibitor, partial curve]

Structure (SMILES)	Potency
Cc1cc(C=C2C(=O)NC(=O)NC2=O)c(C)n1-c1ccc2c(c1)OCO2	inconclusive [inhibitor, partial curve]
Cc1ccc(NC(=O)Cn2c(=O)cc(-c3ccccc3)c3c(C)nn(C)c32)c(Cl)c1	inactive
CCCCC(Br)C(=O)Nc1ccc(S(=O)(=O)Nc2cc(C)nc(C)n2)cc1 (centres undefined)	inconclusive [inhibitor, partial curve]
CC(C)CCNC(=O)CCCCn1c(=O)[nH]c2ccsc2c1=O	inactive
Cc1cc(C)c2c(n1)nn1c(N3CCN(Cc4ccccc4)CC3)cc(C)nc21	inconclusive [inhibitor, single point]
Cc1ccc([N+](=O)[O-])cc1S(=O)(=O)NCC1COc2ccccc2O1 (centres undefined)	inactive
COc1ccc(C(=O)N2CCN(c3ccccc3Cl)CC2)cc1S(=O)(=O)NC1CC1	inconclusive [inhibitor, partial curve]
Cn1nc(-c2ccccc2)cc1NC(=O)C1CCCCC1	inactive
CN1CCN(S(=O)(=O)c2ccc(Cl)s2)CC1	inconclusive [inhibitor, partial curve]
Cc1nn2cnnc2c(C)c1Cc1c(F)cccc1Cl	inconclusive [inhibitor, partial curve]
CN1CCc2nc3sc(C#N)c(N)c3c(-c3cccs3)c2C1	inconclusive [inhibitor, full curve]
CC(C)(c1ccccc1)c1ccc(OCCN2CCOCC2)cc1	inactive
CCC(=O)N(Cc1ccco1)c1nc(C(=O)Nc2ccc(Cl)cc2)c(C)s1	inconclusive [inhibitor, partial curve]
CCCCCc1nnc(NC(=O)C2CCCO2)s1 (centres undefined)	inactive
O=C(NC(=S)Nc1ccccc1N1CCCCC1)c1ccc(-c2cccc([N+](=O)[O-])c2)o1	inconclusive [inhibitor, full curve]
CCOc1ccc(/C=N/n2c(C3CCCCC3)n[nH]c2=S)cc1	inactive
Cc1c(Cl)cccc1NC(=O)CCN1C(=O)C2CC=CCC2C1=O (centres undefined)	inactive
CCOC(=O)C1(Cc2ccccc2C)CCCN(C(=O)c2ccc(COC)o2)C1 (centres undefined)	active: 15.8 µM
CCN(CC)CCN(C(=O)CCS(=O)(=O)c1ccccc1)c1nc2cc(C)cc(C)c2s1	inconclusive [inhibitor, full curve, poor fit]
Oc1ccc(C2C(c3ccccc3)=NN=C(c3ccccc3F)N2O)c(O)c1 (centres undefined)	inconclusive [inhibitor, partial curve]
COCCn1c(-c2ccc(OC)cc2)cnc1N	inconclusive [inhibitor, single point]
COc1ccc(Nc2nc(OC)nc(OC)n2)cc1	inactive
CC(=O)c1cccc(S(=O)(=O)NC2CC2)c1	inconclusive [inhibitor, partial curve]
Cc1noc(-c2ccc(-c3noc(-c4ccc(C(F)(F)F)cc4)n3)cc2)n1	inactive
CCC(=O)Nc1ccc2c(c1)nc1n2CCN(CCOC)C1	inconclusive [inhibitor, single point]

Structure (SMILES)	Potency
O=C1CSC(=S)N1N1C(=O)c2cccc([N+](=O)[O-])c2C1=O	inconclusive [inhibitor, partial curve]
Cc1ccc(S(=O)(=O)NC(=O)N2CCCN(Cc3ccc(F)cc3)CC2)cc1	inconclusive [inhibitor, partial curve]
O=C(Cn1c(=O)n(Cc2ccco2)c(=O)c2cc(Cl)ccc21)NCC1CCCO1 (centres undefined)	inconclusive [inhibitor, partial curve]
COc1ccc(-c2nc(S(=O)(=O)c3ccc(C)cc3)c(NCc3ccccc3)o2)cc1	active: 12.6 µM
COCCNC(=O)C(c1ccc(C)o1)N(C(=O)c1snc(C(N)=O)c1N)c1cccc(C)c1 (centres undefined)	inconclusive [inhibitor, full curve, poor fit]
O=C(Nc1ncc2c(n1)CC(c1ccccc1)CC2=O)c1ccco1 (centres undefined)	inconclusive [inhibitor, partial curve]
CCCCn1nnnc1SCC(=O)Nc1ccc2c(c1)OCCO2	inactive
Cc1ccc2nc(SCC(=O)NC(=O)NCc3ccco3)[nH]c2c1	inconclusive [inhibitor, partial curve]
N#C/C=C/C(=C\Nc1ccc(Cl)cc1)S(=O)(=O)c1ccccc1	inconclusive [inhibitor, full curve, poor fit]
O=C(CCl)Oc1ccc2occ(C(=O)c3cccs3)c2c1	inconclusive [inhibitor, full curve]
Cc1csc(SCC(=O)Nc2ccc(Cl)cn2)n1	inconclusive [inhibitor, single point]
Cc1[nH]nc2c1[C@@H](c1ccccc1[N+](=O)[O-])C(C#N)=C(N)O2	inconclusive [inhibitor, full curve]
Cc1scc(C(=O)NCc2ccco2)c1-c1ccccc1	inconclusive [inhibitor, single point]
O=C(NCCc1cccs1)C(c1ccccc1)c1ccccc1	inconclusive [inhibitor, single point]
O=C(O)/C=C/C(=O)NNc1ccc([N+](=O)[O-])cc1	inconclusive [inhibitor, single point]
CN(CC(=O)Nc1ccc(N2CCOCC2)cc1)Cc1c(O)ccc2ccccc12	active: 0.398 µM
O=C(N/N=C/C=C/c1ccco1)c1cnccn1	active: 10 µM
O=C1N(Cc2cccnc2)C[C@@H]2C[C@@H](c3ccccc3C#Cc3ccccc3)N3CCC[C@@]123	inconclusive [inhibitor, partial curve]
Cc1oc(-c2ccc(Cl)cc2)nc1CN1CCCC(C(=O)NCc2ccco2)C1 (centres undefined)	inactive
CCc1cc2c(=O)n(Cc3ccco3)c(SCC(=O)N3CCCc4ccccc43)nc2s1	active: 25.1 µM
CC1(C)OC(=O)C(=NNc2ccccc2[N+](=O)[O-])C(=O)O1	inactive
Cn1ccc2cc(S(=O)(=O)N3CCN(C(=O)Nc4ccccc4F)CC3)ccc21	inactive
O=C(O)c1ccc(Nc2ncnc3ccccc23)cc1	inactive
COc1ccc(S(=O)(=O)N(CC(=O)NCc2ccco2)C2CCCCC2)cc1OC	inconclusive [inhibitor, full curve]
